Consider 29 molecules from the antibiotic and cytotoxicity screens of Wong et al. (2023).

This is one part of the list.

For one assay, the system named is HSkMC. Briefly: cytotoxicity call (relative viability < 0.9). The note with it: 10 µM.
In another assay the test system is S. aureus RN4220. Briefly: growth inhibition call (relative growth <= 0.2). The settings on record: 50 µM.

Turning to `C[C@H]1CN([C@@H](C)CO)C(=O)c2cc(NC(=O)Nc3ccccc3)ccc2O[C@@H]1CN(C)Cc1ccc(Cl)c(Cl)c1`, the cytotoxicity call with HSkMC was “inactive”. Further, the growth inhibition call with S. aureus RN4220 is “inactive”.

`C[C@H](CO)N1C[C@H](C)[C@@H](CN(C)C(=O)NC2CCCCC2)OCCCC[C@H](C)Oc2ccc(NC(=O)Nc3ccc(F)cc3)cc2C1=O`: the cytotoxicity call in the assay on HSkMC was “inactive”. In the assay on S. aureus RN4220, the growth inhibition call was “inactive”.

`O=C1O[C@@H](c2ccccc2)[C@@H](c2ccccc2)N2[C@@H](c3ccc(O)cc3)[C@]3(C(=O)Nc4ccccc43)[C@@H](C(=O)Nc3nc4ccccc4s3)[C@H]12`: the cytotoxicity call in the assay with HSkMC is “inactive”. The growth inhibition call in the assay with S. aureus RN4220 is “inactive”.

`CO[C@@H]1CN(C)C(=O)c2cc(NC(=O)Nc3cccc(Cl)c3)ccc2OC[C@@H](C)N(C(=O)Nc2c(C)noc2C)C[C@@H]1C`: the cytotoxicity call in the assay on HSkMC is “inactive”. Further, in the assay on S. aureus RN4220, the growth inhibition call was “inactive”.

Turning to `Cc1noc(C)c1S(=O)(=O)N(C)C[C@H]1Oc2c(NS(=O)(=O)c3cn(C)cn3)cccc2C(=O)N([C@@H](C)CO)C[C@H]1C`, in the assay on HSkMC, the cytotoxicity call is “inactive”. Moreover, in the assay on S. aureus RN4220, the growth inhibition call was “inactive”.

On to `COc1cc([C@@H]2c3cc4c(cc3[C@@H](O[C@@H]3O[C@@H]5CO[C@@H](C)O[C@H]5[C@H](O)[C@H]3O)[C@@H]3COC(=O)[C@@H]23)OCO4)cc(OC)c1O`, for which the cytotoxicity call in the assay on HSkMC was “inactive”. Also, the growth inhibition call with S. aureus RN4220 is “inactive”.

As to `C[C@@H]1CCCCO[C@@H](CN(C)C(=O)C2CCCCC2)[C@@H](C)CN([C@@H](C)CO)C(=O)c2cc(NC(=O)NC3CCCCC3)ccc2O1`, the cytotoxicity call in the assay on HSkMC is “inactive”. In the assay with S. aureus RN4220, the growth inhibition call was “inactive”.

In the case of `C#CC1(O)CCC2C3CCC4=CCCCC4C3C(=C)CC21CC` (stereo not drawn), the cytotoxicity call in the assay on HSkMC is “inactive”. Further, in the assay on S. aureus RN4220, the growth inhibition call is “inactive”.

As to `C[C@@H]1CN([C@H](C)CO)C(=O)c2cc(NC(=O)Nc3cccc4ccccc34)ccc2O[C@H]1CN(C)Cc1ccncc1`, the cytotoxicity call with HSkMC was “inactive”. The growth inhibition call with S. aureus RN4220 was “inactive”.

For the molecule `COc1ccc(CN(C)C[C@@H]2OCCCC[C@@H](C)Oc3ccc(NS(=O)(=O)c4ccc(F)cc4)cc3C(=O)N([C@@H](C)CO)C[C@H]2C)cc1`, the cytotoxicity call with HSkMC is “inactive”. The growth inhibition call in the assay with S. aureus RN4220 is “inactive”.

Turning to `C[C@@H]1CN([C@@H](C)CO)C(=O)Cc2cc(NC(=O)Cc3ccccc3)ccc2O[C@H]1CN(C)Cc1ccc(C(F)(F)F)cc1`, in the assay on HSkMC, the cytotoxicity call is “inactive”. Also, the growth inhibition call in the assay with S. aureus RN4220 was “inactive”.

`Cc1ccc(S(=O)(=O)N(C)C[C@@H]2OCCCC[C@@H](C)Oc3ccc(NC(=O)c4ccccc4)cc3C(=O)N([C@@H](C)CO)C[C@H]2C)cc1`: the cytotoxicity call with HSkMC is “inactive”. Also, the growth inhibition call in the assay with S. aureus RN4220 was “inactive”.

On to `C[C@H]1CN([C@@H](C)CO)C(=O)c2cccc(NC(=O)Nc3ccccc3)c2O[C@@H]1CN(C)Cc1ccc(C(F)(F)F)cc1`, for which the cytotoxicity call with HSkMC is “active”. Moreover, the growth inhibition call in the assay with S. aureus RN4220 was “inactive”.

Turning to `CC(=O)O[C@@]1(C)C[C@@H](O)[C@@H]2C=CO[C@@H](O[C@@H]3O[C@H](CO)[C@@H](O)[C@H](O)[C@H]3O)[C@@H]21`, in the assay with HSkMC, the cytotoxicity call was “inactive”. The growth inhibition call in the assay on S. aureus RN4220 is “inactive”.

For the molecule `COCC(=O)N1C[C@@H](C)[C@H](OC)CN(C)C(=O)c2ccc(NC(=O)c3ccc(OC)cc3)cc2OC[C@@H]1C`, the cytotoxicity call in the assay with HSkMC is “inactive”. For the same molecule, the growth inhibition call with S. aureus RN4220 was “inactive”.

With `C[C@H](CO)N1C[C@H](C)[C@@H](CN(C)Cc2ccncc2)OCCCC[C@H](C)Oc2ccc(NS(=O)(=O)c3ccc(Cl)cc3)cc2C1=O`, the cytotoxicity call in the assay on HSkMC was “inactive”. The growth inhibition call in the assay on S. aureus RN4220 was “inactive”.

Turning to `COc1ccc(NC(=O)Nc2ccc3c(c2)CC(=O)N([C@@H](C)CO)C[C@@H](C)[C@H](CN(C)Cc2ccc(Cl)c(Cl)c2)O3)cc1`, the cytotoxicity call with HSkMC was “inactive”. In the assay on S. aureus RN4220, the growth inhibition call is “inactive”.

Take `COc1ccc(CCNC(=O)[C@@H]2c3ccccc3C(=O)N(Cc3ccccc3OC)[C@H]2c2ccc(CO)cc2)cc1`: the cytotoxicity call with HSkMC is “inactive”. In addition, the growth inhibition call in the assay on S. aureus RN4220 was “inactive”.

With `C[C@@H]1CCCCO[C@@H](CN(C)C(=O)C2CCCCC2)[C@H](C)CN([C@H](C)CO)C(=O)c2cc(NS(=O)(=O)c3cccs3)ccc2O1`, the cytotoxicity call in the assay with HSkMC is “inactive”. For the same molecule, the growth inhibition call with S. aureus RN4220 was “inactive”.

Regarding `CCCN(C)C[C@H]1Oc2cc(C#Cc3ccccc3OC)ccc2S(=O)(=O)N([C@@H](C)CO)C[C@H]1C`, the cytotoxicity call with HSkMC was “inactive”. Besides, in the assay with S. aureus RN4220, the growth inhibition call is “inactive”.

For the molecule `C[C@@H]1CN([C@H](C)CO)C(=O)c2cccc(NS(=O)(=O)c3ccccc3)c2O[C@@H]1CN(C)S(=O)(=O)c1cccs1`, in the assay with HSkMC, the cytotoxicity call is “inactive”. Besides, in the assay with S. aureus RN4220, the growth inhibition call was “inactive”.

On to `COc1ccccc1S(=O)(=O)N[C@H]1C=C[C@H](CC(=O)N2CCOCC2)O[C@@H]1CO`, for which the cytotoxicity call in the assay on HSkMC was “inactive”. Besides, in the assay with S. aureus RN4220, the growth inhibition call was “inactive”.

`C[C@H]1CCCCO[C@H](CN(C)C)[C@@H](C)CN([C@@H](C)CO)C(=O)c2cc(NC(=O)Nc3ccc(C(F)(F)F)cc3)ccc2O1`: the cytotoxicity call in the assay on HSkMC was “inactive”. Besides, in the assay with S. aureus RN4220, the growth inhibition call is “inactive”.

Consider `CCCNC(=O)c1cc2c(c(-c3cccc(-c4cccc(F)c4)c3)n1)[C@@H](CCO)N([S@](=O)C(C)(C)C)C2`, for which the cytotoxicity call in the assay on HSkMC was “inactive”. For the same molecule, the growth inhibition call in the assay with S. aureus RN4220 was “inactive”.

With `CS(=O)(=O)c1ccc(C(O)C(CO)NC(=O)C(Cl)Cl)cc1` (stereo not drawn), the cytotoxicity call with HSkMC was “inactive”. The growth inhibition call in the assay with S. aureus RN4220 is “inactive”.

`COCc1cn(CC[C@@H]2CC[C@H](NC(=O)CCN3CCCCC3)[C@@H](CO)O2)nn1`: the cytotoxicity call in the assay on HSkMC was “inactive”. For the same molecule, in the assay with S. aureus RN4220, the growth inhibition call is “inactive”.

In the case of `COc1ccc(C#Cc2ccc3c(c2)O[C@H](CN(C)C(C)=O)[C@@H](C)CN([C@@H](C)CO)S3(=O)=O)cc1`, the cytotoxicity call with HSkMC is “inactive”. In addition, the growth inhibition call in the assay on S. aureus RN4220 is “inactive”.

As for `CC(C)NC(=O)N(C)C[C@H]1OCc2cn(nn2)CCCC(=O)N([C@H](C)CO)C[C@@H]1C`, the cytotoxicity call in the assay on HSkMC (human skeletal muscle cells) is “inactive”. In the assay on S. aureus RN4220, the growth inhibition call was “inactive”.

On to `C[C@@H]1CN([C@H](C)CO)C(=O)Cc2cc(NC(=O)CCCCCC(=O)Nc3ccccc3N)ccc2O[C@H]1CN(C)Cc1ccc(C(F)(F)F)cc1`, for which the cytotoxicity call in the assay with HSkMC was “inactive”. In addition, the growth inhibition call with S. aureus RN4220 was “inactive”.
